Each structure is given as a SMILES string. The campaign covered roughly 50,000 compounds. About 800 (1.6%) showed an effect of 50% or more. Some of the results follow.

The values that follow come from PubChem BioAssay AID1240 (Sanford-Burnham Center for Chemical Genomics, 2008).

For this assay, the target named is Bcl-2-like protein 10 (Homo sapiens) (UniProt Q9HD36). Nature of the assay: TR3 peptide-Bcl-B binding displacers, biochemical primary FP assay, phenotype converters (AID 1240).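 Note: 0% = Bcl-B with tracer peptide and DMSO and 100% = tracer peptide lacking Bcl-B.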 To be noted: GST-Bcl-B / FITC-TR3 peptide fluorescence polarization; stronger effect = higher value; compound at 3.75 mg/L. On the technique in general: Fluorescence polarisation rises when a labelled molecule tumbles more slowly, as on binding a larger partner.
Chain of UniProt Q9HD36 (Q9HD36 whole entry, looked up): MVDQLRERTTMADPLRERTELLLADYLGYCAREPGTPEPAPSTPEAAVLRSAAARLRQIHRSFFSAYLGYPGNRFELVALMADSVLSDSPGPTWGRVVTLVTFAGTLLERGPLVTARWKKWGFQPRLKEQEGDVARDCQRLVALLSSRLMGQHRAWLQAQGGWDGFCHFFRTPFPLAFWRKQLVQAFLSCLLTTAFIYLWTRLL
Take `COc1ccc(C(=O)Nc2ccc(S(N)(=O)=O)cc2)cc1I`: the displacement is -4.5%. The value for `Cc1ccc(-c2ccc(/C=C3\SC(=S)NC3=O)o2)c([N+](=O)[O-])c1` was 11.2%. With `O=C(NCCCNC(=O)c1cccc(F)c1)c1cccc(F)c1`, the displacement amounted to 3.2%. The figure for `COC(=O)CN1C(c2ccccc2OC)Nc2ccc(Br)cc2C1c1ccccc1` (stereo not given) is 6.9%; for `COc1ccc(CCNC(=O)COc2ccc(Cl)cc2Br)cc1OC` it is -3.1%; for `CN(C)C(=O)COc1ccc2ccc(=O)oc2c1` it is 11%. The figure for `O=C(Nc1cc(-c2nc3ccccc3s2)ccc1Cl)c1cc(I)ccc1Cl` is 13.7%; for `Cc1cc(C)cc(NC(=O)Cc2ccc(Br)cc2)c1` it is 17.2%. The value for `Cc1cc(NC(=O)CSc2nc3ccccc3[nH]2)no1` was 14.3%; that for `O=C(/C=C/c1ccccc1)NCC1(c2ccccc2)CCOCC1` was -11%; that for `COc1cccc2cc(C(=O)OCC(=O)c3ccc([N+](=O)[O-])cc3)c(=O)oc12` was 9.7%.

In the case of `COc1cc(/C=C2\C(=O)N(c3cccc(C(=O)O)c3)N=C2C)ccc1O`, the displacement is -114%. The value for `CCc1nc(SCc2ccc(OC)cc2)n[nH]1` was -12.6%; that for `CCN(CC)c1ccc(NC(=O)c2ccc(-c3cccc(Cl)c3)o2)cc1` was 11.8%. The value for `O=C(NN=C1CCCC1)c1cccnc1` was 6.8%; that for `O=C1NN(c2ccccc2)C(=O)C2C3c4ccccc4C(c4ccccc43)C12` (stereo not given) was -1.4%; that for `Cc1cccnc1NC(=O)c1ccccc1NC(=O)c1ccccc1` was -10.3%. The figure for `Cc1cc(/C=C2\C(=O)NC(=O)N(c3ccc4c(c3)OCO4)C2=O)c(C)n1-c1cccc([N+](=O)[O-])c1` is 52.7%. With `COc1cc(Br)c(/C=C(\C#N)C(=O)NCc2ccco2)cc1OC`, the displacement was found to be 28.8%.

Take `CCc1cccc(C)c1NC(=O)COc1ccc(OC)cc1`: the displacement is -1.9%. The value for `Cc1cc(C)cc(NC(=O)/C=C/C(=O)O)c1` was -2.2%; that for `O=C(/C=C/c1ccc(Cl)cc1)Nc1ccc(N2CCOCC2)cc1` was 3.8%; that for `COc1ccc2oc(-c3ccc(Cl)cc3)cc(=O)c2c1` was 6.8%. As to `CC(CC(=O)c1cccs1)CC(=O)c1cccs1`, the displacement is -5.4%. For the molecule `O=C1C(Cl)=C(N2CCN(c3ccccc3)CC2)C(=O)N1c1ccccc1`, the displacement was 13.7%. The value for `CCCCOC(=O)c1ccc(NC(=O)c2cccc([N+](=O)[O-])c2)cc1` was -2.4%; that for `CC1=C(C(=O)OC2CCCCC2)C(c2cc3c(cc2[N+](=O)[O-])OCO3)C2=C(CC(C)(C)CC2=O)N1` (stereo not given) was -0.2%; that for `O=C(Oc1ccc(Cl)cc1)c1cccs1` was -8.9%. The value for `COc1ccc(C2SCc3cc(C)c(C)cc3CS2)cc1OC` was -5.8%; that for `CN(C)c1nc(Nc2nc3ccccc3[nH]2)nc(N(C)C)n1` was 0.2%.

Turning to `Cc1ccc(CSc2nnnn2-c2ccccc2)cc1`, the displacement is -5.2%.

For `CCNC(=S)N(CCc1ccccc1)C1CC(=O)N(c2ccc(F)cc2)C1=O` (stereo not given), the displacement is -4.9%. The value for `COc1cccc(/C=N/NC(=O)/C(=C/c2ccc(N(C)C)cc2)NC(=O)c2ccccc2)c1O` was 0.9%; that for `CCC(=O)c1ccc(N2CCCC2)c(F)c1` was -13.5%; that for `O=C(Nc1ccc(NC(=O)c2cc3ccccc3o2)cc1Br)c1ccccc1` was 10.9%.

In the case of `O=C(NC(=S)Nc1ncn[nH]1)c1ccccc1`, the displacement is -21.2%. The value for `Cc1nnc(NC(=O)c2cc(Cl)cc(Cl)c2)s1` was -0.3%; that for `CC(NC(=O)c1ccccc1)c1ccc(Br)cc1` (stereo not given) was 5.7%. Regarding `COc1ccc(/C(N)=N/OC(=O)Cc2ccc(Cl)cc2)cc1`, the displacement was -6.7%. The value for `O=C1/C(=C/c2ccc(O)c([N+](=O)[O-])c2)SC(=S)N1c1ccc(Br)cc1` was -20.5%; that for `O=C(Nc1ccccc1C(=O)N1CCCCC1)c1ccccc1Cl` was 10.3%. Turning to `C/C(=C\c1ccccc1)c1nc(-c2ccccc2O)n(-c2ccccc2)n1`, the displacement was -15.4%.

Consider `CC(=O)Nc1cc(Oc2cccc(C)c2)cc([N+](=O)[O-])c1`, for which the displacement is -6.1%.

In the case of `COc1ccccc1C1/C(=C(/O)c2ccccc2)C(=O)C(=O)N1CC1CCCO1` (stereo not given), the displacement is -8.4%. The figure for `C=CCn1c(SCC(=O)NCCCO)nc2sc3c(c2c1=O)CCCC3` is 2.5%; for `COc1cccc(/C=C2\SC(=S)N(Cc3ccccc3)C2=O)c1OC` it is 8.6%; for `O=C(Nc1ccccc1C(F)(F)F)c1ccc(-c2ccc(Cl)cc2Cl)o1` it is -12.2%. Take `COc1ccc(-c2ccc(/C=C3/C(=O)NN(c4ccc(C)c(Cl)c4)C3=O)o2)c([N+](=O)[O-])c1`: the displacement is 13.1%. Take `COc1ccccc1C1Nc2ccccc2NC2=C1C(=O)CCC2` (stereo not given): the displacement worked out at 0.9%.

As for `Cc1cc(C)cc(NC(=O)c2sc3ccccc3c2Cl)c1`, the displacement worked out at 4.2%.

For `CCCOc1ccc(/C=N/NS(=O)(=O)c2ccc3ccccc3c2)cc1OC`, the displacement stood at 1%. The value for `COc1cc(/C=c2\sc3nc4ccccc4n3c2=O)cc(Cl)c1OCc1ccccc1F` was -5.8%; that for `O=C(Nc1cccc(C(F)(F)F)c1)c1ccccc1[N+](=O)[O-]` was 11.9%; that for `CCn1c(SCCc2ccccc2)nc2ccccc2c1=O` was -4.3%.

Take `Cc1cc(Cl)cc(C)c1OCCN1CCCC1`: the displacement turned out to be 4.5%.

For the molecule `CSc1ccc(S(=O)(=O)N(CC(=O)Nc2ccccc2Br)c2ccc(C)cc2)cc1`, the displacement is -11.5%. The value for `CCOc1ccc(N(CC(=O)Nc2ccc(OC)cc2)S(=O)(=O)c2ccc(SC)cc2)cc1` was -0.6%; that for `CCOc1ccccc1/C=C(/NC(=O)c1ccccc1)C(=O)N(CC)CC` was -5%; that for `CC(=O)Nc1ccc(S(=O)(=O)N(c2ccccc2F)S(=O)(=O)c2ccc(NC(C)=O)cc2)cc1` was 10%. The figure for `CCc1c(C)nc2c(Cl)cccc2c1SCC(=O)O` is -5.6%. Consider `Cc1ccc(N(CC(=O)NC(C)c2ccccc2)S(=O)(=O)c2ccc(F)cc2)cc1` (stereo not given), for which the displacement was -2.8%. The figure for `C=CCc1cccc2cc(C(=O)Nc3ccc(CC)cc3)c(=O)oc12` is 8.6%; for `CCN(CC)c1ccc(NS(=O)(=O)c2ccc(NC(C)=O)cc2)cc1` it is 41%; for `O=C1N=c2ccc(Cl)cc2=C1c1sc(=O)[nH]c1O` it is 0.8%.

Consider `CC1(C)CC2(CCO1)NN=C(c1ccccc1)S2` (stereo not given), for which the displacement was -0.7%. The figure for `COc1ccc(C2=Nc3ccccc3NC(C)(c3ccc(OC)cc3OC)C2)c(OC)c1` (stereo not given) is 3%.

Turning to `COCCNC(=O)CN(c1cccc(OC)c1)S(=O)(=O)c1ccccc1`, the displacement was -5.1%. The value for `Cc1ccc(NC(=O)COc2ccccc2)cc1[N+](=O)[O-]` was 6.5%; that for `CCN(CC)c1ccc(C2Nc3ccccc3NC3=C2C(=O)CC(c2ccc(OC)cc2)C3)cc1` (stereo not given) was 3.5%; that for `COc1ccc(-c2[nH]ncc2/C=N\NC(=O)c2ccccc2I)cc1` was -8.4%.
